In patent publication US11547761B1, “Antibody adjuvant conjugates” (The Board of Trustees of the Leland Stanford Junior …, priority 2016, dated 2023):

What was measured:
[1] = test system: human APCs (myeloid cells); assay: APC-tumor co-culture / myeloid cell stimulation, surface markers by flow cytometry; type: cell-based; conditions: 18 hours of stimulation; compared with the corresponding unconjugated antibody unless the value names another comparator
Text: (§1) Human antigen presenting cells (APCs) were negatively selected from human peripheral blood mononuclear cells obtained from healthy blood donors (Stanford Blood Center) by density gradient centrifugation using a RosetteSep Human Monocyte Enrichment Cocktail (Stem Cell Technologies) containing monoclonal antibodies against CD2, CD3, CD8, CD19, CD56, CD66b and CD235a. Immature APCs were subsequently purified to >97% purity via negative selection using an EasySep Human Monocyte Enrichment Kit without CD16 depletion containing monoclonal antibodies against CD2, CD3, CD19, CD20, CD56, CD66b, CD123 and CD235a.
Tumor cells were resuspended in PBS with 0.1% fetal bovine serum (FBS) at 1 to 10×10^6 cells/mL. Cells were subsequently incubated with 2 μM CFSE to yield a final concentration of 1 μM. The reaction was ended after 2 minutes via the addition of 10 mL complete medium with 10% FBS and washed once with complete medium. Cells were either fixed in 2% paraformaldehyde and washed three times with PBS or left unfixed prior to freezing the cells in 10% DMSO, 20% FBS and 70% medium.
(§2) 2×10^5 APCs were incubated with or without 6.5×10^5 autologous or allogeneic CFSE-labeled tumor cells in 96-well plates (Corning) containing IMDM medium (Gibco) supplemented with 10% fetal bovine serum, 100 U/mL penicillin, 100 μg/mL streptomycin, 2 mM L-glutamine, sodium pyruvate, non-essential amino acids, 50 μM 2-ME and, where indicated, various concentrations of anti-tumor antibody and the indicated adjuvants. Cells and cell-free supernatants were analyzed after 18 hours via flow cytometry.
as §1, with “[…]” for “CD2, CD3, CD8, CD19, CD56, CD66b”, “[…].” for “CD235a.”, “CD14, CD16, CD40, CD86, CD123,” for “CD2, CD3, CD19, CD20, CD56, CD66b, CD123”
as §2, with “antibody.” for “anti-tumor antibody and the indicated adjuvants.”
(§3) 2×10^5 APCs were incubated with or without 6.5×10^5 allogeneic CFSE-labeled tumor cells in 96-well plates (Corning) containing IMDM medium (Gibco) supplemented with 10% fetal bovine serum, 100 U/mL penicillin, 100 μg/mL streptomycin, 2 mM L-glutamine, sodium pyruvate, non-essential amino acids and, where indicated, various concentrations of unconjugated CD20 antibody, and immunoconjugates of the invention were prepared according to the examples above. Cells and cell-free supernatants were analyzed after 18 hours via flow cytometry or ELISA.

[2] = test system: human APCs (myeloid cells); assay: Cytokine secretion from human APCs / myeloid cells (cell free supernatants); type: cell-based
Description: After 18 hours, cell free supernatants were analyzed for cytokine secretion via cytokine bead arrays; n=3. P-values≤0.05 depicted by *, P-values≤0.01 depicted by **, P-values≤0.001 depicted by ***, P-values≤0.0001 depicted by ****.
as §2, with “Cells and cell-free supernatants were analyzed after 18 hours via flow cytometry.” left out
While the expression of T cell stimulatory molecules such as CD40, CD86 and HLA-DR is necessary for effective T cell activation, APCs also influence the nature of the ensuing immune response through the secretion of cytokines. Therefore, the capacity of immunoconjugates to elicit cytokine secretion in human APCs following stimulation was investigated as described above.
The capacity of these immunoconjugates to elicit cytokine secretion in human APCs following stimulation was investigated as described in Example 3 above.
as §3, with “Cells and cell-free supernatants were analyzed after 18 hours via flow cytometry or ELISA.” left out

[3] = 18 hours of stimulation, compared to equimolar unconjugated antibody unless the value names another comparator
[4] = 36 hours of stimulation, compared to equimolar unconjugated antibody

B1: Bevacizumab Boltbody (conjugate, chains of the INN, looked up)
heavy: EVQLVESGGGLVQPGGSLRLSCAASGYTFTNYGMNWVRQAPGKGLEWVGWINTYTGEPTYAADFKRRFTFSLDTSKSTAYLQMNSLRAEDTAVYYCAKYPHYYGSSHWYFDVWGQGTLVTVSS[human IgG1 constant region cut from this listing]
light: DIQMTQSPSSLSASVGDRVTITCSASQDISNYLNWYQQKPGKAPKVLIYFTSSLHSGVPSRFSGSGSGTDFTLTISSLQPEDFATYYCQQYSTVPWTFGQGTKVEIKRTVAAPSVFIFPPSDEQLKSGTASVVCLLNNFYPREAKVQWKVDNALQSGNSQESVTEQDSKDSTYSLSSTLTLSKADYEKHKVYACEVTHQGLSSPVTKSFNRGEC
modifications: adjuvant conjugate
superior: CD14 downregulation on myeloid cells [1] | CD16 downregulation on myeloid cells [1] | CD40 upregulation on myeloid cells [1] | CD86 upregulation on myeloid cells [1] | CD123 upregulation on myeloid cells [1] | IL-1β secretion from myeloid cells [2, 3] | TNFα secretion from myeloid cells [2, 3] | IL-1β secretion from myeloid cells [2, 4] | TNFα secretion from myeloid cells [2, 4]
